# Measurements as given in ChEMBL document CHEMBL1201862, “PubChem BioAssay data set” (2004).
# Tested on: NCI-H322M
# Assay: growth of human tumour cells (NCI), 48 h
row,Structure (SMILES),GI50
1,C=C[C@H]1CN2CC[C@H]1C[C@@H]2[C@@H](O)c1ccnc2ccccc12 [CINCHONINE],inactive: > 100 µM
2,CCOC(=O)C(C)(C)Oc1ccc(Cl)cc1 [CLOFIBRATE],inactive: > 1000 µM
3,Clc1ccccc1C(c1ccccc1)(c1ccccc1)n1ccnc1 [CLOTRIMAZOLE],inactive: 16.1 µM
4,COc1cc2c(c(OC)c1OC)-c1ccc(=O)c(O)cc1[C@@H](NC(C)=O)CC2 [COLCHICEINE],inactive: 30.9 µM
5,COc1c(OC/C=C(\C)CCC=C(C)C)ccc2ccc(=O)oc12 [COLLININ],inactive: > 100 µM
6,COc1ccc(/C=C\c2cc(OC)c(OC)c(OC)c2)c(O)c1O [COMBRETASTATIN A-1],active: 0.0697 µM
7,C[C@@H]1O[C@@H](O[C@H]2CC[C@]3(C=O)[C@H]4CC[C@]5(C)[C@@H](C6=CC(=O)OC6)CC[C@]5(O)[C@@H]4CC[C@]3(O)C2)[C@H](O)[C@H](O)[C@H]1O [CONVALLATOXIN],active: 2.88e-05 µM
8,COc1cc2cc3c4cc(OC)c(OC)cc4cc[n+]3c(C)c2cc1OC [CORALYNE],inactive: > 100 µM
9,C=C1C(=O)O[C@@H]2[C@H]1CC[C@H](C)[C@]1(O)CCC(=O)[C@@]21C [CORONOPILIN],inactive: > 10 µM
10,CC[C@@]1(O)C(=O)OCc2c1cc1n(c2=O)Cc2c-1nc1ccccc1c2CC[Si](C)(C)C [COSITECAN],active: 0.0192 µM
11,O=C(O)c1cc2ccccc2oc1=O [COUMARIN-3-CARBOXYLIC ACID],inactive: > 100 µM
12,Cc1ccc(O)cc1.Cc1cccc(O)c1.Cc1ccccc1O [CRESOL],inactive: > 100 µM
13,C/C1=C\CC/C(C)=C/C=C(/C(C)C)CC/C(C(=O)O)=C/CC1 [CROTOCEMBRANEIC ACID],inactive: 53.1 µM
14,C[C@H]1COC2=C1C(=O)C(=O)c1c2ccc2c1CCCC2(C)C [CRYPTOTANSHINONE],inactive: 1.64 µM
15,CC(C)(O)/C=C/C(=O)[C@](C)(O)[C@H]1[C@H](O)C[C@@]2(C)[C@@H]3CC=C4[C@@H](C[C@H](O)C(=O)C4(C)C)[C@]3(C)C(=O)C[C@]12C [CUCURBITACIN D],inactive: 3.61 µM
16,CC(C)(O)/C=C/C(=O)[C@](C)(O)[C@H]1[C@H](O)C[C@@]2(C)[C@@H]3CC=C4[C@@H](C=C(O)C(=O)C4(C)C)[C@]3(C)C(=O)C[C@]12C [CUCURBITACIN I],inactive: 4.22 µM and inactive: 3.94 µM
17,COc1cc2c(cc1-c1coc3cc(O)ccc3c1=O)OCO2 [CUNEATIN],inactive: 26.7 µM
18,CC1CCCCCC(=O)c2c(O)cc(O)cc2CC(=O)O1 (stereo not given) [CURVULARIN],inactive: > 100 µM

row,Structure (SMILES),GI50
1,C[C@@H]1C[C@@H]([C@H](O)CC2CC(=O)NC(=O)C2)C(=O)[C@@H](C)C1 [CYCLOHEXIMIDE],active: 0.0485 µM
2,Cc1c(O)ccc2c(O)c(NC(=O)c3ccc4c(c3)CCC(C)(C)O4)c(=O)oc12 [CYCLONOVOBIOCIC ACID],inactive: > 100 µM
3,CO[C@H]1C[C@H](O[C@H]2CC[C@]3(C=O)[C@H]4CC[C@]5(C)[C@@H](C6=CC(=O)OC6)CC[C@]5(O)[C@@H]4CC[C@]3(O)C2)O[C@H](C)[C@H]1O [CYMARIN],active: 0.325 µM
4,O=c1cccc2n1CC1CNC[C@H]2C1 [CYTISINICLINE],inactive: > 100 µM
5,Cc1cc(O)c2c(c1O)C(=O)c1c(O)ccc(O)c1C2=O [Cynodontin],inactive: > 100 µM
6,CN(C)/N=N/c1[nH]cnc1C(N)=O [DACARBAZINE],inactive: 95.3 µM
7,Nc1ccc2c(c1)CN1C(=O)c3ccccc3C1=N2 [DANIQUIDONE],inactive: 44.2 µM
8,CN(C)c1cccc2c(S(=O)(=O)NCCN)cccc12 [DANSYL ETHYLENEDIAMINE],inactive: > 100 µM
9,O=C1c2cccc(O)c2C(=O)c2c(O)cccc21 [DANTHRON],inactive: 40.5 µM
10,CC(=O)N(O)CCCCCNC(=O)CCC(=O)N(O)CCCCCNC(=O)CCC(=O)N(O)CCCCCN [DEFEROXAMINE HYDROCHLORIDE],inactive: 20.1 µM
11,C=C(C)C1CC2=C(O1)C(=O)c1ccccc1C2=O (stereo not drawn) [DEHYDROISO-ALPHA-LAPACHONE],inactive: 21 µM
12,C=C1C(=O)O[C@@H]2O[C@@]3(C)CC[C@H]4[C@H](C)CC[C@@H]1[C@@]24O3 [DEOXYARTEMISITENE],inactive: 46.1 µM
13,C[C@H](CCC(=O)O)[C@H]1CC[C@H]2[C@@H]3CC[C@@H]4C[C@H](O)CC[C@]4(C)[C@H]3C[C@H](O)[C@]12C [DEOXYCHOLIC ACID],inactive: 43.7 µM
14,COc1cc([C@@H]2c3cc4c(cc3C[C@H]3COC(=O)[C@@H]32)OCO4)cc(OC)c1OC [DESOXYPODOPHYLLOTOXIN],active: 0.00944 µM
15,C[C@@H]1C[C@H]2[C@@H]3CCC4=CC(=O)C=C[C@]4(C)[C@@]3(F)[C@@H](O)C[C@]2(C)[C@@]1(O)C(=O)CO [DEXAMETHASONE],inactive: > 100 µM
16,CCOC(=O)NC1=C(N2CC2)C(=O)C(NC(=O)OCC)=C(N2CC2)C1=O [DIAZIQUONE],inactive: 16.7 µM
17,c1ccc(CSSSCc2ccccc2)cc1 [DIBENZYL TRISULFIDE],inactive: 7.93 µM

# Where “and” joins values, the source holds several entries; their conditions need not be identical. Equal entries are not always repeated. Structures can show the parent of a compound that is named as a salt.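 Compound exposure: 48 hours, 5 concentrations, 96-well plates. GI50 is the concentration that inhibits growth by half.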 Calls of active or inactive are those of the source. Cut-off read from the data, not from the text of the source: active = GI50 up to about 1.1 µM and inactive = higher.
